# In PubChem BioAssay AID686970 (National Center for Advancing Translational Sciences (NCATS), 2013):
# The campaign covered roughly 360,000 compounds. About 6,000 (1.7%) were called active. This list was built around the results that the source calls inconclusive (neither active nor inactive); the mix of calls is not that of the screen. The call rests on the fitted dose curve; in most records, active means well fitted cell-killing curve with a large enough effect; inconclusive means small, poorly fitted or top-dose-only effect, or effect the other way; inactive means flat fitted curve, though single readings scatter. No potency is given beside an inconclusive call; the fits are too rough.
# Assay: qHTS for induction of synthetic lethality in tumor cells producing 2HG: qHTS for the HT-1080-NT fibrosarcoma cell line;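 further: NT is the 2HG producing partner of a matched IDH1 knockdown line; nearly all actives have a fitted effect of over 55% in size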;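 on activity, negative = less viability: 0% = DMSO-treated cells and -100% = media-only wells without cells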
# Settings: HT-1080-NT fibrosarcoma viability, CellTiter-Glo ATP luminescence, 48 h; activity, negative = less viability: at 46.1 µM (top of the series) unless noted
# Outline: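 A 48-hour cytotoxicity screen used HT-1080-NT cells plated 2 hours before compound delivery. ATP-based CellTiter-Glo luminescence measured viability, normalized to DMSO and no-cell controls.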
# Potency means the concentration at half of the fitted maximal effect; tags describe the fitted curve by direction and shape.
SMILES,"activity, negative = less viability",Potency
CCc1ccccc1NC(=O)/C(=C/c1ccco1)c1ccccc1,inactive: -2.01%,
COc1ccc(/C(N)=N/OC(=O)CSc2ccc(C)cc2)cc1,inactive: 18.4%,
CCC(=O)Nc1ccc(S(=O)(=O)N2CCc3ccccc32)cc1,inactive: -0.357%,
O=C(N/N=C/c1cc(Br)cc(Br)c1O)c1ccncc1,,"inconclusive [cytotoxic, partial curve, poor fit]"
COc1ccc(OCC(=O)NCc2ccc(Cl)cc2)cc1,inactive: -0.254%,
COc1ccccc1-c1c(C#N)c(N)nc2c1CCc1ccccc1-2,,active: 14.6 µM
CC(C)C1C(=O)N(Cc2cn(Cc3ccco3)nn2)CCS(=O)(=O)N1Cc1ccc(-c2ccc(Cl)cc2)cc1 (stereo not drawn),,"inconclusive [cytotoxic, single point]"
COc1ccc(C2=NN3C(C2)c2ccccc2OC3c2cccs2)cc1 (stereo not drawn),inactive: -18%,
CN1CCN(C(=O)C2=C[C@H](c3coc4ccccc4c3=O)C[C@H](OCc3ccc(CO)cc3)O2)CC1,inactive: 18.5%,
Cc1cccnc1NC(=S)NC(=O)c1cccs1,,active: 6.31 µM
COc1ccc(OC)c(C2=CC(=O)C[C@H](c3ccc4c(c3)OCO4)C2)c1,,"inconclusive [cytotoxic, partial curve]"
Cc1nc2c(ncn2-c2ccccc2)c(=O)n1NC(=O)CN1CCN(C)CC1,inactive: -6.19%,
COc1ccc(C=O)cc1CSc1ncccc1C(=O)O,inactive: 16.1%,
Cc1ccccc1C(=O)Nc1cccc(C(=O)N/N=C/c2ccc3c(c2)OCO3)c1,,"inconclusive [cytotoxic, partial curve, poor fit]"
Cc1ccc(-n2c(-c3ccc(Cl)cc3)c[n+]3c2CCC3)cc1,,"inconclusive [cytotoxic, partial curve]"
Cc1cc(C)cc(N2CCCn3c2nc2c3c(=O)n(CCN3CCOCC3)c(=O)n2C)c1,inactive: -1.73%,
CCOC(=O)CSc1nc(C(C)(C)C)nc2ccccc12,,"inconclusive [cytotoxic, single point]"
Cc1c(-c2nc(N)nc(Nc3ccc(F)cc3)n2)oc2ccccc12,,"inconclusive [cytotoxic, single point]"
COCCn1c(SCC(=O)NC2CC2)nc2ccccc21,inactive: 5.61%,
CC(C)(C)c1ccc(C(=O)Nc2cccc3ncccc23)cc1,,"inconclusive [cytotoxic, single point]"
Cn1cccc1/C=N/NC(=O)c1sc2ccccc2c1Cl,,"inconclusive [cytotoxic, single point]"
COc1cc(OC)nc(Nc2nc(C(N)Cc3ccc(Cl)cc3)cs2)n1 (stereo not drawn),,active: 23.1 µM
CCO[C@@H]1OC(C(=O)O)=C[C@H](C)[C@H]1CCCO,inactive: 9.95%,
O=[N+]([O-])/C=C/c1ccc2c(ccn2Cc2ccccc2)c1,,"inconclusive [cytotoxic, single point]"
CCc1ccc(C2=NN(c3ccc(S(N)(=O)=O)cc3)C(c3ccc(F)cc3)C2)cc1 (stereo not drawn),,"inconclusive [cytotoxic, single point]"

SMILES,"activity, negative = less viability",Potency
CCN(CC)S(=O)(=O)c1ccc(=O)n(CC(=O)N2CCCc3cc(C)ccc32)c1,inactive: -3.21%,
CCCN1CCCc2cc(CN)ccc21,,"inconclusive [cytotoxic, single point]"
COc1cc(CNCCc2ccccc2)cc(Br)c1OCC(=O)Nc1ccccc1C,,"inconclusive [cytotoxic, single point]"
O=C(NCc1cccnc1)C(=O)C1C(=O)Nc2ccccc21 (stereo not drawn),inactive: 0.222%,
Cc1sc2c(c1C)CN(CCN1CCOCC1)CN2C(=O)c1ccccc1,inactive: 7.29%,
CN(C)CCCN(C(=O)c1ccco1)c1nc2ccc(Br)cc2s1,,active: 23.1 µM
O=C(CN1CCN(c2ccc(O)cc2)CC1)Nc1cc(S(=O)(=O)N2CCCC2)ccc1Cl,inactive: -2.24%,
COc1cccc(NC(=O)c2nc(S(C)(=O)=O)ncc2Cl)c1,,active: 5.17 µM
O=C(/C=C\c1ccccc1OC(=O)c1ccccc1F)c1cc2ccccc2o1,,active: 16.4 µM
Cc1cc(-c2ccccc2)nc(SCC(=O)c2cccc([N+](=O)[O-])c2)n1,,"inconclusive [cytotoxic, single point]"
COc1ccc(C)cc1NS(=O)(=O)c1ccc(NC(=O)CN(c2cc([N+](=O)[O-])ccc2C)S(C)(=O)=O)cc1,,"inconclusive [cytotoxic, single point]"
COC(=O)COc1cc(Br)c(/C=C2/SC(=O)N(CC(=O)N3CCCC3)C2=O)cc1OC,inactive: 18.2%,
COc1cc(OC)c(NC(=O)CC(C)=O)cc1Cl,inconclusive: 34.3%,
COc1ccc(/C=N/N=C2\SC(CC(=O)O)C(=O)N2c2ccccc2)c(OC)c1 (stereo not drawn),,"inconclusive [rising, single point]"
CCC(CC)C(=O)N(C)c1c(C)nc2c(OCc3ccccc3OC)cccn12,,"inconclusive [rising, partial curve, poor fit]"
COc1cc(/C=C2/S/C(=N/S(=O)(=O)Cc3ccccc3)NC2=O)c([N+](=O)[O-])cc1OC,,"inconclusive [cytotoxic, partial curve, poor fit]"
CC(=O)Oc1ccc(C(c2ccc(OC(C)=O)cc2)c2ccccn2)cc1,,"inconclusive [cytotoxic, full curve]"
COc1ccc(C(=O)Nc2cccc([N+](=O)[O-])c2)cc1Br,,"inconclusive [cytotoxic, single point]"
CNC(=S)N/N=C/c1ccc(-c2ccc(C(=O)O)cc2)o1,,"inconclusive [cytotoxic, partial curve, poor fit]"
CS/C(=N\S(=O)(=O)c1ccccc1)c1ccccc1,inactive: 5.5%,
COc1cccc(-c2cccc(-c3nc(C(=O)Nc4ccc(-c5ccccc5)cc4)cc4c3[C@H](CCO)N(S(=O)C(C)(C)C)C4)c2)c1 (stereo partly drawn),,"inconclusive [cytotoxic, single point]"
CNC(=O)c1ccsc1NC(=O)c1sc2ccccc2c1Cl,,"inconclusive [cytotoxic, single point]"
COc1ccc(-c2[nH][nH]c(=O)c2NC(=O)c2ccc(C)cc2)cc1,inconclusive: 31.9%,
Cc1cc([N+](=O)[O-])ccc1NC(=S)NC(=O)C(c1ccccc1)c1ccccc1,,"inconclusive [cytotoxic, partial curve]"
CCn1c(Sc2ccc([N+](=O)[O-])cn2)nnc1-c1ccco1,,active: 11.6 µM

SMILES,"activity, negative = less viability",Potency
COC(=O)[C@@]12CCCCN1[C@H](c1ccc(SC3CCCCC3)cc1)[C@@H]1C(=O)N(C)C(=O)[C@@H]12,inactive: 2.83%,
CCc1nc(Nc2ccc(O)cc2)c2oc3ccccc3c2n1,,"inconclusive [cytotoxic, single point]"
CCC(CC)CN1CCC(CN2C(=O)C(=O)NC[C@@H]2CC(C)C)CC1,inactive: 12.5%,
Cc1ccc(C(=O)O)cc1NC(=O)CSc1ncnc2sc3c(c12)CCC3,inactive: -8.66%,
Cc1nc(N2CCC(C)CC2)c2nnn(Cc3ccccc3)c2n1,,"inconclusive [cytotoxic, single point]"
COc1ccc(C(=O)/C=C/c2ccc(F)cc2)c(OC(=O)c2ccc([N+](=O)[O-])cc2)c1,,"inconclusive [cytotoxic, single point]"
O=C(NCc1cccnc1)C(=O)NCC(c1ccco1)N1CCN(c2ccccc2)CC1 (stereo not drawn),inactive: 12.5%,
CCOc1ccccc1-n1c(CN2CCN(C(=O)c3ccco3)CC2)nc2ccccc2c1=O,,active: 5.62 µM
CC1(C(=O)Nc2ccc3c(c2)OCCO3)CCC(=O)N1CCc1c[nH]c2ccccc12 (stereo not drawn),inactive: -2.2%,
COc1ccc(CC(N)c2csc(NC(=O)NC(c3ccccc3)c3ccccc3)n2)cc1 (stereo not drawn),,active: 23.1 µM
Cc1cccc2nc(CSC(=N)N)c(Br)n12,,"inconclusive [cytotoxic, partial curve]"
Cc1cccc2cc3c(nc12)SC(=NCC1CCCO1)N(Cc1ccco1)C3 (stereo not drawn),,active: 5.8 µM
Nc1c(S(=O)(=O)c2cccs2)c2nc3ccccc3nc2n1/N=C/c1cccc(O)c1,,"inconclusive [cytotoxic, single point]"
CC[C@@]1(C(=O)OC)N[C@H](CN(C)S(=O)(=O)c2ccc(-c3ccccc3)cc2)[C@@H]2C(=O)N(Cc3ccccc3)C(=O)[C@@H]21,inactive: 9.04%,
O=C(CN(c1cccc(C(F)(F)F)c1)S(=O)(=O)c1ccc(Cl)c([N+](=O)[O-])c1)NCc1ccc(F)cc1,,"inconclusive [cytotoxic, single point]"
OCCCNc1ncnc2oc(-c3ccccc3)c(-c3ccccc3)c12,,"inconclusive [cytotoxic, single point]"
COC(=O)c1cnn(-c2ccccc2)c1-n1cccc1C=O,,"inconclusive [cytotoxic, single point]"
Cc1cc(-c2cc(NC=O)c3ncc(-c4cccc(C(=O)NCCN(C)C)c4)n3c2)cc(C)c1O,,active: 25.9 µM
Cc1ccc(-c2nc(NC(=O)c3cc(C(C)(C)C)nn3C)sc2C)cc1Cl,inactive: 3.76%,
C=C(C)CNC(=S)NNC(=O)CCn1c2cc(Cl)ccc2c2ccc(Cl)cc21,inactive: 4.72%,
CCn1c(=S)[nH]c2scc(-c3cccs3)c2c1=O,,"inconclusive [cytotoxic, single point]"
Cc1cccc2sc(N(CCCN(C)C)C(=O)COc3ccc(Cl)cc3)nc12,,"inconclusive [cytotoxic, single point]"
C[C@@H]1CN([C@H](C)CO)S(=O)(=O)c2ccc(C3=CCCCC3)cc2O[C@H]1CN(C)C(=O)Cc1cccnc1,inactive: 0.308%,
